Test results taken from PubChem BioAssay (NCATS).
Where “and” joins values, the source holds several entries; their conditions need not be identical. Identical values can stand only once. Inconclusive means that the source gave no clear call. Such entries were picked first, then a sample of the others. For part of these data: Potencies of inconclusive entries are left out as doubtful fits. Calls of active or inactive are those of the source. Unless noted, calls follow the shape of the dose curve; as a rule, active = well fitted curve in the direction sought with a large enough effect; inconclusive = small, poorly fitted or top-dose-only effect, or another doubt; inactive = no such curve, though single readings can be large; an effect the other way counts as inactive or inconclusive.

Columns and labels:
[1] = target: Cytochrome P450 2C9 (Homo sapiens) (UniProt P11712); assay: Cytochrome P450 family 2 subfamily C member 9 (CYP2C9) small molecule antagonists: luciferase biochemical (cell-free) qHTS assay (AID 1645842; active = well fitted curve in the direction sought with a large enough effect in the repeat runs; inconclusive = weak or mixed curves; inactive = no such curve, though single readings can be large; an effect the other way counts as inactive or inconclusive; also: nearly all actives have a fitted effect of over 55% in size; also: potency is read from the fitted curve at half-maximal effect; as to activity change, negative = inhibition: % is scaled to controls: 0 for no effect and ±100 for the full control effect)
Chain of UniProt P11712 (P11712 whole entry, looked up): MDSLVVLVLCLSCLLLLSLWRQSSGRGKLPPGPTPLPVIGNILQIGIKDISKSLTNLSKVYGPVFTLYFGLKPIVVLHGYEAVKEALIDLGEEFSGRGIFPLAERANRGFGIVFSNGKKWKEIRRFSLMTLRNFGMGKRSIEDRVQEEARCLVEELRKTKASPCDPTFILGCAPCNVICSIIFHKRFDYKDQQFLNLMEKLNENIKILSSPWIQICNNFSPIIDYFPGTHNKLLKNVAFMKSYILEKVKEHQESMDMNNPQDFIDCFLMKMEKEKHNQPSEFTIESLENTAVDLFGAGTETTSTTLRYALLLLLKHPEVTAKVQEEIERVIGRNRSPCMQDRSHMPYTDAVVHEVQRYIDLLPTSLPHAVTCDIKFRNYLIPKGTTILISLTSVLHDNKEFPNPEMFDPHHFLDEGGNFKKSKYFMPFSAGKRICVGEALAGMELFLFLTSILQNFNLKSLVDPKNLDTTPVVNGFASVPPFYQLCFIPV
Procedure, shortened: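 P450-Glo CYP2C9 system: proluciferin substrate with enzyme in mix containing 0.4% BSA, 10 min at room temperature, then NADPH regeneration solution added and incubated 1 h at 37C. Detection reagent stopped reaction; luminescence read after 20 min as RLU.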

[2] = Primary qHTS for small molecule stabilizers of the endoplasmic reticulum resident proteome: Secreted ER Calcium Modulated Protein (SERCaMP) assay (AID 1508630); conditions: SH-SY5Y GLuc-SERCaMP (Gaussia luciferase released on ER calcium loss) secretion, thapsigargin, luminescence; activity change, negative = inhibition: at 38.4 µM (top of the series); also: % is scaled to controls: 0 for no effect and ±100 for the full control effect
Procedure, shortened: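 The SH-SY5Y reporter protocol was run at 3 concentrations up to 38.3 uM (primary) or 11 concentrations (follow-up): 16 h compound, 100 nM thapsigargin for 4 h, then extracellular luciferase luminescence.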

[3] = target: Cytochrome P450 3A4 (Homo sapiens) (UniProt P08684); assay: Cytochrome P450 family 3 subfamily A member 4 (CYP3A4) small molecule antagonists: luciferase qHTS assay (AID 1645841; active = well fitted curve in the direction sought with a large enough effect in the repeat runs; inconclusive = weak or mixed curves; inactive = no such curve, though single readings can be large; an effect the other way counts as inactive or inconclusive; also: potency is read from the fitted curve at half-maximal effect; nearly all actives have a fitted effect of over 45% in size)
Chain of UniProt P08684 (P08684 whole entry, looked up): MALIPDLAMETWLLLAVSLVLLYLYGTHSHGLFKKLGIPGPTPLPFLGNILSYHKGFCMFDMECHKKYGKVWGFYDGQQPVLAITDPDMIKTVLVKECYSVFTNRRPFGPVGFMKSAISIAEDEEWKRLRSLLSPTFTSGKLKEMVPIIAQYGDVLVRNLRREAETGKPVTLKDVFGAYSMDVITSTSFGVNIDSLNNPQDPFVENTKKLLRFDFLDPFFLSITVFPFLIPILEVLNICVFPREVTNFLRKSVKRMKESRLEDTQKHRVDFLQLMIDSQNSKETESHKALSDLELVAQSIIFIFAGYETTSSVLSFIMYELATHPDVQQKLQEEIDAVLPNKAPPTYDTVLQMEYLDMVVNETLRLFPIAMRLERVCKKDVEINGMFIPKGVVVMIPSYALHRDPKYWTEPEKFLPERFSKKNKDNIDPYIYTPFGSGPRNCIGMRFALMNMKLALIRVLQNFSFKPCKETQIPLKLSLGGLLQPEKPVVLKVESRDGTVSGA
Procedure, shortened: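 P450-Glo CYP3A4 enzyme with proluciferin substrate preincubated 10 min with compound at room temperature, then NADPH regeneration 1 h. Luciferin detection reagent added for 20 min; luminescence recorded. Ketoconazole positive control.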

[4] = target: Estrogen receptor (Homo sapiens) (UniProt P03372); assay: qHTS assay for small molecule antagonists of estrogen receptor alpha signaling (AID 588513; active = well fitted curve in the direction sought with a large enough effect in the signal ratio, with a control signal flat, not every such curve was filed as active; inconclusive = small, poorly fitted or top-dose-only effect, or effect the other way, or a change in a side signal; inactive = no such curve, though single readings can be large or run the other way; the % refers to the signal ratio; also: potency is read from the fitted curve at half-maximal effect); conditions: ER-alpha-UAS-bla HEK293, beta-lactamase ratio, antagonist mode; activity, negative = inhibition: at 76.9 µM (top of the series)
Chain of UniProt P03372 (P03372 whole entry, looked up): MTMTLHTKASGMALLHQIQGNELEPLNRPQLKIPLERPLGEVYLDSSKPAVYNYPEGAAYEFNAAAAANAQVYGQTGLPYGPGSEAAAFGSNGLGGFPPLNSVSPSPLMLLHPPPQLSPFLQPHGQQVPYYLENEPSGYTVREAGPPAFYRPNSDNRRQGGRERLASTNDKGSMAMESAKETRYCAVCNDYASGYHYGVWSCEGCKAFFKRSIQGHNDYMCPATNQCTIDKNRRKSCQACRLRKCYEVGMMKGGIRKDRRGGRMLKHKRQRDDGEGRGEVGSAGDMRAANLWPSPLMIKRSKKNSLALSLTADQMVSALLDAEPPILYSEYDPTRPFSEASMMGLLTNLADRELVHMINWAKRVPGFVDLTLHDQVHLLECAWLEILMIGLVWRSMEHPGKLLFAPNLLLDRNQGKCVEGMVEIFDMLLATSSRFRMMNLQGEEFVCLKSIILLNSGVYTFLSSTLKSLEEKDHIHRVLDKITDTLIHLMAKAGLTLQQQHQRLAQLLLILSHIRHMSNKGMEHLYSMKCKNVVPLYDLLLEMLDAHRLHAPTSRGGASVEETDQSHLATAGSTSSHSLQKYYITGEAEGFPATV
Procedure, shortened: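 Antagonist-mode qHTS in ER-alpha-UAS-bla HEK 293 cells: compound titration, 0.5nM estradiol for 18 h, CCF4 fluorescence, Hill-derived IC50.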

[5] = target: Retinoic acid receptor RXR-alpha (Homo sapiens) (UniProt P19793); assay: qHTS assay for small molecule agonists of retinoid X receptor alpha signaling (AID 588544; calls by dose curve; also: potency is read from the fitted curve at half-maximal effect;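 as to activation: 0% = DMSO basal wells and 100% = reference agonist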); conditions: HEK293T RXRa-UAS-bla, beta-lactamase reporter, 18 h; activation: at 76.7 µM (top of the series)
Chain of UniProt P19793 (P19793 whole entry, looked up): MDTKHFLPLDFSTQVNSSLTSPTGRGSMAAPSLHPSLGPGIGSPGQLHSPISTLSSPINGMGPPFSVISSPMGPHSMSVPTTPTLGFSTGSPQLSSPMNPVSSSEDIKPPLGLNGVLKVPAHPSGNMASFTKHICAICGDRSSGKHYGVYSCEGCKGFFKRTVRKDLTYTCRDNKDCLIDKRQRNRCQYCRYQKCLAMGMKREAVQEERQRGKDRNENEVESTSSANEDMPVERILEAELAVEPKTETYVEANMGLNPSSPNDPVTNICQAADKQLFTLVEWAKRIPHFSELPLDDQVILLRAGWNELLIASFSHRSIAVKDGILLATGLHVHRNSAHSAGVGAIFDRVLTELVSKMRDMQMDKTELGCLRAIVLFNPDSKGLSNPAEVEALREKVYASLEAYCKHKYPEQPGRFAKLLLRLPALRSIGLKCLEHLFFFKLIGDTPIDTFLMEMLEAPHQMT

[6] = target: Retinoic acid receptor RXR-alpha (Homo sapiens) (UniProt P19793); assay: qHTS assay for small molecule antagonists of retinoid X receptor alpha signaling (AID 588546; active = well fitted inhibition curve with a large enough effect in the signal ratio, with a control signal flat, not every such curve was filed as active; inconclusive = small, poorly fitted or top-dose-only effect, or effect the other way, or a change in a side signal; inactive = no such curve, though single readings can be large or run the other way; the % refers to the signal ratio;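 also: cells stimulated with 9-cis-retinoic acid as agonist; % is scaled to controls: 0 for no effect and ±100 for the full control effect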); conditions: HEK293T RXRa-UAS-bla, beta-lactamase ratio, antagonist mode
Procedure, shortened: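 Beta-lactamase reporter inhibition, read as CCF4 fluorescence ratio (ex 405, em 460/530 nm) after 2 h at RT. HEK293T UAS-bla cells, 2500/well, were stimulated with 9-cis-RA at 500 or 100 nM final alongside test compound for 18 h at 37 C.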

[7] = qHTS of pediatric cancer cell lines to identify multiple opportunities for drug repurposing: Primary screen for RD cells (AID 1347104); conditions: RD rhabdomyosarcoma viability, CellTiter-Glo luminescence, 48 h; at 46 µM (top of the series) unless noted;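 also: plate controls were DMSO for no effect and bortezomib for full effect; nearly all actives have a fitted effect of over 55% in size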
Procedure, shortened: (§1)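 CRCs from 8- or 11-point titrations (lowest final 0.59 nM NPC, 0.78 nM MIPE). Cell viability: CellTiter-Glo after 48 h incubation, 15 min room-temperature development, luminescence imaging.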

[8] = qHTS of pediatric cancer cell lines to identify multiple opportunities for drug repurposing: Primary screen for NB-EBc1 cells (AID 1347095);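 also: plate controls were DMSO neutral control for no effect and bortezomib for full effect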
Procedure, shortened: as §1

[9] = Primary qHTS for inhibitors of MERS-S pseudo-typed particle cell entry (AID 1479149; calls by dose curve; also: % is scaled to controls: 0 for no effect and ±100 for the full control effect; nearly all actives have a fitted effect of over 60% in size); conditions: outcome: dose series up to 57.1 µM unless noted
[10] = qHTS for differential inhibitors of proliferation of Plasmodium falciparum line D10 (AID 1877);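 also: parasites grown with compound for 72 h before DNA staining; plate controls were vehicle wells for no effect and reference inhibitor wells for full effect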
[11] = target: RecQ-like DNA helicase BLM (Homo sapiens) (UniProt P54132); assay: qHTS Validation Assay for Inhibitors of Bloom's syndrome helicase (BLM) (AID 2364); also: potency is read from the fitted curve at half-maximal effect
Chain of UniProt P54132 (P54132 whole entry, looked up): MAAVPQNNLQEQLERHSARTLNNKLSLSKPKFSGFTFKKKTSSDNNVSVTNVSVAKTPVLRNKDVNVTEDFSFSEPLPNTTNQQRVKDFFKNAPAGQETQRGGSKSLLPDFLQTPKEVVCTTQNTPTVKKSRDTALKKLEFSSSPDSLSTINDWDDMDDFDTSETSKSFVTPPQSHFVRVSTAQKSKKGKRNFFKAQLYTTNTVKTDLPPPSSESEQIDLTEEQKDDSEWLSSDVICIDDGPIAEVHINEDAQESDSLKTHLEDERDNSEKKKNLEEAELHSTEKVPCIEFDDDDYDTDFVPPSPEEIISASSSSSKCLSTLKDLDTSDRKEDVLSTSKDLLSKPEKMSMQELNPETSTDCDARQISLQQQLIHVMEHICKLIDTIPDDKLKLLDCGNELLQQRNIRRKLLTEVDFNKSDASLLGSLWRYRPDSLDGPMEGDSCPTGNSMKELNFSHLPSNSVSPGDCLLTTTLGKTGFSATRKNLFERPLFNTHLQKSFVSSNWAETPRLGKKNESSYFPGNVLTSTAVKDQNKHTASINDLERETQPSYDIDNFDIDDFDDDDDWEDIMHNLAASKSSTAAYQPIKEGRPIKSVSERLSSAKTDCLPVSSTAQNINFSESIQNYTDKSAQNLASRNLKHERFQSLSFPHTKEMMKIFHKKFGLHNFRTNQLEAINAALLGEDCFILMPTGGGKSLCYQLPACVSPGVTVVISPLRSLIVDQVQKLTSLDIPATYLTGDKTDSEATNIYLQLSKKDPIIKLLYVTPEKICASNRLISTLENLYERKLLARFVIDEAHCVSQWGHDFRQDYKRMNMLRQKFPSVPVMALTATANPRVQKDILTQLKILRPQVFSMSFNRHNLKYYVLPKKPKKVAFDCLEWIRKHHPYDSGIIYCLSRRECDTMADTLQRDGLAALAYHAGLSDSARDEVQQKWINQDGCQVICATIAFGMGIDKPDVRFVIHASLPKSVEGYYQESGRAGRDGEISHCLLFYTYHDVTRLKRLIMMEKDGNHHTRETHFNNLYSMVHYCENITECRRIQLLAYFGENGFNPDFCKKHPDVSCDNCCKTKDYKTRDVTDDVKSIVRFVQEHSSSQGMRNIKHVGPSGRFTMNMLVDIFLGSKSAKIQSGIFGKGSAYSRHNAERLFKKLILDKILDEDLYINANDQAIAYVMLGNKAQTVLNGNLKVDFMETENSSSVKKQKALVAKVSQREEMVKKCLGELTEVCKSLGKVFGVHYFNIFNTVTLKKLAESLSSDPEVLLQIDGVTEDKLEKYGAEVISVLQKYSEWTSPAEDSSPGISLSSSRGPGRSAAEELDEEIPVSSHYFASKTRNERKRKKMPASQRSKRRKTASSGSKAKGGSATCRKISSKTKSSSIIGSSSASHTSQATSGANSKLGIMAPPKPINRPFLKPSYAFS
Procedure, shortened: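 50 nM BLM preincubated 15 min at room temperature with compound in pH 8.0 Tris buffer containing 2.5 ug/ml poly(dI-dC); started with 200 nM TAMRA/BHQ-2 forked duplex and 2 mM ATP (final). Unwinding read as TAMRA fluorescence increase, two reads 2 h apart.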
Tags tell the direction and shape of the fitted curve or compound fluorescence and quenching.

Cc1cn(C[C@H](N)C(=O)O)c(=O)n(Cc2cc(-c3ccccc3)sc2C(=O)O)c1=O
Potency [1]: inactive

Fc1cc(Br)ccc1CBr
Potency [2]: inactive
Potency [1]: inactive

N#Cc1ccc([C@H]2CCCC[C@H]2O)cc1C(F)(F)F
Potency [3]: inconclusive [falling, single point]

Cc1c(Cl)cccc1S(=O)(=O)Nc1nc(CC(=O)N2CCN(C)CC2)cs1
Potency [3]: inconclusive [falling, partial curve, poor fit]

O=S(=O)(O)C(F)(F)C(F)(F)C(F)(F)C(F)(F)F
Potency [4]: inconclusive [inhibitor, partial curve, poor fit]
Potency [5]: inconclusive [inhibitor, full curve, poor fit]
activation [5]: inconclusive: 59.6%
max response [6]: inconclusive: -9.36% and inconclusive: -31.7%

Cc1c(N2C(=O)[C@@H]3[C@H](O)CCN3C2=O)ccc(C#N)c1Cl
Potency [1]: inconclusive [inhibitor, single point]

c1ccc2c(c1)sc1ccccc12
activity change, negative = cytotoxic [7]: inactive: 20.3%

O=[N+]([O-])c1cc(I)c(O)c(I)c1
Potency [1]: inconclusive [inhibitor, single point]

CC1=C(C(=O)O)N2C(=O)[C@@H](N)[C@H]2SC1
Potency [8]: inactive

CC(C)CCC(=O)O[C@H]1CC[C@H]2[C@@H]3CCC4=CC(=O)CC[C@]4(C)[C@H]3CC[C@]12C
Potency [9]: inactive

CC(CC(C(N)=O)(c1ccccc1)c1ccccc1)N(C)C (stereo not drawn)
Potency [2]: inactive

C=C(C)[C@H]1CN[C@H](C(=O)O)[C@H]1CC(=O)O
Potency [10]: inactive
Potency [11]: inconclusive [inhibitor, full curve, poor fit]
Potency [8]: inactive
